Experimental data reported in PMC4336329 (PLoS ONE, 2015).
Among all 310,000 compounds or so, about 14,000 (4.5%) showed an effect of 50% or more. The effect is printed as a negative number. The list shows a part of the results.

molecular target: human ether-à-go-go-related gene (hERG) potassium channel (human, UniProt Q12809); assay: primary screen, population patch clamp on CHO cells stably expressing hERG
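Also: peak tail current of the secondary pulse compared with the same well before compound.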

Chain of human ether-à-go-go-related gene (hERG) potassium channel (Q12809 whole entry, looked up): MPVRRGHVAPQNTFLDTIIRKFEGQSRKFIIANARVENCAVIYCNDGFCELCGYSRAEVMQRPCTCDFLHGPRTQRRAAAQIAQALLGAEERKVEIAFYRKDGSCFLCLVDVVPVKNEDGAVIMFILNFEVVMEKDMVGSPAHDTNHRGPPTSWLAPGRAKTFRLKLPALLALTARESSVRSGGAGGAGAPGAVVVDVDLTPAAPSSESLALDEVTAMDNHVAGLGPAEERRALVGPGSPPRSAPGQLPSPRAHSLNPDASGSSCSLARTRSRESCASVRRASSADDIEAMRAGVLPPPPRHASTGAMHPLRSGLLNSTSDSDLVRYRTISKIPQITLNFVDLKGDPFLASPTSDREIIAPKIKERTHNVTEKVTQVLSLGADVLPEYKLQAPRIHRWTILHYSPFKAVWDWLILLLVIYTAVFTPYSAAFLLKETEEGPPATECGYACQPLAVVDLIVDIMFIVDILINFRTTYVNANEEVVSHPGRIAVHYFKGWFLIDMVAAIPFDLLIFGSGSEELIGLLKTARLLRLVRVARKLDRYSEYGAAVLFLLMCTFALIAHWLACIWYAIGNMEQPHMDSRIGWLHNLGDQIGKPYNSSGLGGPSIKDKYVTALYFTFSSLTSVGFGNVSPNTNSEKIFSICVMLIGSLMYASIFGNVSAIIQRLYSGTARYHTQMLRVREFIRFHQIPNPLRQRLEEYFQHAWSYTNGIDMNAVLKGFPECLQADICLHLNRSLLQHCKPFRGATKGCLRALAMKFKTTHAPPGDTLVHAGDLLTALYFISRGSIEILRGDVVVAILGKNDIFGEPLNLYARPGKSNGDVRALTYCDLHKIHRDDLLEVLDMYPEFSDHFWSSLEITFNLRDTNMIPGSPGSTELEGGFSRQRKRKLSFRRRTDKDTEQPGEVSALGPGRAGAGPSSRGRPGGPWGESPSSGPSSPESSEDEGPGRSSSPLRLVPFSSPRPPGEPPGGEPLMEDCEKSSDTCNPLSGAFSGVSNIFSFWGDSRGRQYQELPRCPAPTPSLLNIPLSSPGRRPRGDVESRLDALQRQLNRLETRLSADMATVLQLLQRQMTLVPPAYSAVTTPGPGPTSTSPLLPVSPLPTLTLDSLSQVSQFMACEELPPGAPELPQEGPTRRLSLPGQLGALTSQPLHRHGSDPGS

SMILES	hERG current change (%, negative = inhibition) at 10uM
COc1ccc(N2CCN(c3cc(C)c4cccc(C)c4n3)CC2)cc1	22.7%
COC(=O)C(CC(C)C)NC(=O)c1ccc([N+](=O)[O-])cc1 (stereo not shown)	-23.2%
COc1cc(C(=O)N2CCN(S(=O)(=O)c3ccc(C)cc3)CC2)ccc1OCc1c(C)noc1C	-21%
Cc1cc(C(=O)NC2CCCCC2)c(C)n1-c1ccc(F)cc1	-6.06%
C/C(=N\NC(=O)c1cc(C)nc2ccccc12)c1ccc([N+](=O)[O-])cc1	-11.7%
COc1cc(C2NC(=O)NC(C)=C2C(C)=O)cc(OC)c1OC (stereo not shown)	9.41%
CCOC(=O)c1cccc(Nc2nc(-c3cccnc3)nc3ccccc23)c1.Cl	-6.06%
Cc1c(/C=N/Nc2ccc([N+](=O)[O-])cn2)c2ccccc2n1Cc1ccccc1	20.4%
CCCNc1nc(Cl)nc(NC(C)(C)C)n1	-0.3%
COC(=O)[C@@H]1C[C@H]1[C@@H](NC(=O)c1ccccc1)c1ccccc1	-11.9%
Cc1nn(C)cc1C(=O)/C=C/c1ccc([N+](=O)[O-])cc1	-12.4%
CCCCn1nc(NC(=O)CC(C)C)c2cc3cc(OC)ccc3nc21	12.1%
CN(C)S(=O)(=O)c1ccc(C(=O)/C=C/c2cccnc2)cc1	2.22%
N=C1C(c2nc3ccccc3c(=O)[nH]2)=C(O)CN1CCc1ccccc1	12%
CN1CCN(C(=O)C2=C[C@@H](c3coc4ccccc4c3=O)C[C@@H](OCc3ccc(CO)cc3)O2)CC1	-22.5%
CC1CCc2c(sc(NC(=O)c3ccco3)c2C(=O)O)C1 (stereo not shown)	30.3%
COc1ccc(-c2noc(CCCC(=O)NCC3CCCO3)n2)cc1 (stereo not shown)	15%
O=C(c1c(Cl)cccc1Cl)N1CCN(c2ncccn2)CC1	11.9%
Cn1cc(/C=N/Nc2ccccc2)c2ccccc21	15.4%
CCOC(=O)c1cnc(SC)nc1Oc1cccc(NS(=O)(=O)c2ccc(C)cc2)c1	-6.83%
CN(C)c1ccc(S(=O)(=O)N2CCCCC2)cc1NC(=O)COc1ccccc1F	-5.89%
COc1ccc(CC(=O)Nc2ccccc2C(=O)N2CCOCC2)cc1OC	19.9%

SMILES	hERG current change (%, negative = inhibition) at 10uM
N#CCSc1nnc(N)s1	4.55%
Cc1cccc(C(=O)Nc2ccccc2C(=O)NCc2ccco2)c1	-26.3%
CC(C)(C)OC(=O)[C@H](Cc1ccccc1)NC(=O)c1nc[nH]c1C(=O)N1CCN(C(=O)OC(C)(C)C)CC1	-18.2%
O=C(O)c1cccc(CSc2ncn[nH]2)c1	1.15%
O=C(O)c1c(Cl)c(Cl)c(Cl)c(Cl)c1C(=O)N1CCOCC1	19.2%
O=C1CSC(=Nc2ccc(Cl)cc2)N1Cc1cccnc1	-5.63%
O=C(N/N=C/c1c[nH]c2ccccc12)C1COc2ccccc2O1 (stereo not shown)	-5.33%
COC(=O)C(CC(C)C)NC(=O)c1cccs1 (stereo not shown)	16%
O=C(Cc1cccs1)Nc1nnc(-c2ccc(F)cc2)s1	5.75%
Cc1nc(=O)c(-c2ccccc2)c(C)n1-c1cccc(C(=O)O)c1	9.23%
O=C(CSc1nnc(C2CCCCC2)n1-c1ccccc1)NCc1ccco1	-21.4%
COC(=O)c1ccc(C(=O)OC)c(NC(=O)C2CCCO2)c1 (stereo not shown)	10.5%
Cc1cccc(-n2nnnc2SCC(=O)Nc2ccc(N3CCN(C)CC3)cc2)c1	-55%
CCOC(=O)c1c(NC(=O)c2ccc(Cl)s2)sc(C)c1C	13.4%
Cc1ccc2c(c1)N(CC(=O)OC(CC(C)C)C(=O)NC1CCCC1)C(=O)CO2 (stereo not shown)	-47.4%
Cc1ccc(C(=O)Cn2c(-c3ccccc3)noc2=O)cc1	-12.5%
CCCn1nc(NC(=O)c2cccs2)c2cc3cccc(C)c3nc21	-30.1%
CSc1ccc(C(=O)N2CCC(CCC(=O)NC3CC3)CC2)cc1	-30.8%
CCn1c(=S)sc2c(=O)n(CC(=O)Nc3ccc(Cl)cc3)c(C)nc21	15.3%
O=C(Nc1ccc2c(c1)CCC2)Nc1ccc2c(c1)OCO2	6.88%
CC1O[C@@H](O[C@H](C)CC[C@@H](C)O)C(O)C[C@H]1O (stereo partly shown)	8.55%
O=C1[C@@H]2[C@@H]3C[C@@H]([C@H]4ON=C(c5ccc(Cl)cc5)[C@@H]34)[C@@H]2C(=O)N1c1ccc2c(c1)OCO2	-9.76%

SMILES	hERG current change (%, negative = inhibition) at 10uM
COc1ccc(C(=O)N2CCC(C(=O)N3CCN(c4ccc(OC)cc4)CC3)CC2)cc1	-43.5%
CCOC(=O)c1[nH]ncc1CN1CCC(Cc2cccc(OC)c2)(C(=O)OCC)CC1	-37.6%
Cc1cc(C)c2ccc(N)nc2c1O	-8.87%
CCCCn1c(N)c(N(CCC(C)C)C(=O)C2CC(=O)N(c3ccc(OC)cc3OC)C2)c(=O)[nH]c1=O (stereo not shown)	6.5%
COc1ccc(-n2c(C)cc(C(=O)Cn3nnc4ccccc4c3=O)c2C)cc1	-8.12%
COc1ccc2c(c1)CC/C(=C/c1ccccn1)C2=O	3.19%
COc1cccc(C2=CC(=O)C[C@H](c3ccc(F)cc3)C2)c1OC	-31.9%
CC1=C(C#N)C2(O)C(=O)c3ccccc3C2(O)N1 (stereo not shown)	20.3%
COC(=O)C1=C(C)N=c2s/c(=C/c3cccs3)c(=O)n2C1c1cccs1 (stereo not shown)	-7.35%
CC(=O)/C=C1/SC(CC(=O)O)C(=O)N1c1ccccc1 (stereo not shown)	13.4%
CCOC(=O)Cn1cc(/C=N/NC(=O)c2ccc(C#N)cc2F)c2ccccc21	-25.9%
C=CCn1c(N)cc(=O)nc1SC(C)C(=O)Nc1cccc2ccccc12 (stereo not shown)	16.5%
COc1ccc(NC(=O)c2ccc(NC(=O)C(C)C)cc2)c([N+](=O)[O-])c1	23.1%
COCCn1cnc2c1c(=O)n(CC(=O)c1ccc3c(c1)OCCO3)c(=O)n2Cc1ccccc1	-13.7%
COc1cc(C(c2sc3ncnn3c2O)N2CCN(c3ccccc3F)CC2)cc(OC)c1OC (stereo not shown)	-6.1%
Cc1cccc(NC(=O)c2cccc3c2C(=O)c2ccccc2-3)c1	25.3%
O=c1c(-c2ccccc2)coc2cc(O)ccc12	3.41%
Cc1ccc(NC(=O)OCCN2CCN(Cc3ccccc3)CCC2=O)cc1C	-5.17%
COc1ccc(-c2nc(-c3ccccn3)no2)cc1	15%
O=C(NCCN1CCc2ccccc2C1)Nc1ccc(F)cc1	-37.5%
N#Cc1ccsc1NC(=O)C1CCCN1S(=O)(=O)c1cccs1 (stereo not shown)	9.71%
CCCS(=O)(=O)N1CCCC(C(=O)N2CCOCC2)C1 (stereo not shown)	5.04%

SMILES	hERG current change (%, negative = inhibition) at 10uM
CCCCCn1c(NCc2ccco2)nc2ccccc21	-74.8%
N#Cc1ccc(/C=C/C(=O)c2cccnc2)cc1	-49.4%
Fc1ccc(/C=N/Nc2nc3ccccc3[nH]2)cc1F	-22.1%
O=C(COC(=O)c1ccc(S(=O)(=O)N2CCCC2)cc1)Nc1ccc(F)cc1F	9.22%
Cc1ccc([N+](=O)[O-])c(OCCn2cnc3ccccc32)c1	5.57%
CCC(CC)C(=O)Nc1cccc(C(=O)NCCc2ccccc2)c1	-7.6%
Cc1cc(N/N=C(/CCC(=O)[O-])C(=O)[O-])nc2ccccc12.[K+]	25.4%
C(=N\n1cnnc1)/c1cccc(OCCOc2ccccc2)c1	-3.91%
O=C1NC[C@@H](Cc2cccc3ccccc23)N(CC2CCCCC2)C1=O	-5.73%
CN(C)c1c([N+](=O)[O-])ncn1C	-3.88%
Fc1ccc2nc(C3CCCCN3Cc3nc(CC4CC4)no3)[nH]c2c1 (stereo not shown)	0.821%
CCc1ccc(OCCCC(=O)Nc2ccc(S(=O)(=O)Nc3cc(C)nc(C)n3)cc2)cc1	21.3%
Cc1ccc2cc(CN(Cc3nnnn3Cc3ccco3)CC3CCCO3)c(=O)[nH]c2c1C (stereo not shown)	-22.8%
COc1cccc(C2NC(=O)NC(O)(C(F)(F)F)C2C(=O)c2cccnc2)c1OC (stereo not shown)	-5.78%
CCOC(=O)c1sc(N)nc1C(C)C	-2.86%
O=[N+]([O-])c1cc(/C=N/N/C(=N/c2ccccn2)c2ccccn2)ccc1O	7.8%
CCOC(=O)C1=C(C)NC(C)=C(C(=O)OCC)C1C(=O)O	-7.57%
CCCCN(C(=O)Cn1nnc2ccccc21)C(C(=O)NCCOC)c1cccs1 (stereo not shown)	20.4%
Cc1nc2ccccc2n1C1CC(=O)N(Cc2ccccc2)C1=O (stereo not shown)	13.2%
CCCCc1nc2cc(C(=O)NCCc3c(C)n[nH]c3C)ccc2o1	6.23%
CNC(=S)N1CCc2sccc2C1C (stereo not shown)	-3.77%
O=c1[nH]c(O)c(N=Nc2cc(C(F)(F)F)ccc2Cl)c(=O)[nH]1	20.6%
